Data published in ChEMBL document CHEMBL4888484, “Replenishing the malaria drug discovery pipeline: Screening and hit evaluation of the MMV Hit Generation Library 1 (HGL1) against asexual blood stage Plasmodium falciparum ,using a nano luciferase reporter read-out” (2022).
The whole screen tested about 150,000 compounds, of which about 540 (0.36%) showed an effect of 50% or more. The list shows a part of the results.

system: Plasmodium falciparum; test: Primary screen in NF54 nanoGlo assay, in single point, at 2uM, 72h; a lower Z score goes with more inhibition; assay type: functional, Erythrocyte; conditions: timepoint 72 hour

| Compound | % Inhibition | Z score |
| --- | --- | --- |
| O=C1Nc2cc(C(=O)N3CCCCCC3)ccc2N2CCCC[C@@H]12 | -26% | 4.84 |
| O=C(CCNC(=O)Cc1n[nH]c(=O)c2ccccc12)NCc1cccnc1 | -15% | 2.34 |
| CCc1nn(C)c(OC)c1CNS(=O)(=O)c1cccc2c1OC(C)(C)C2 | -7% | 0.62 |
| Cc1csc(C(=O)NCC2(OCCO)CCCC2)c1 | -5% | 0.63 |
| O=C(NCc1cccc(F)c1)[C@H]1CCCN(c2nc3ccccc3n(Cc3ccccc3)c2=O)C1 | 33% | -0.55 |
| O=C(Nc1ccc(OC2COC2)cc1)N1CCc2c(F)cc(F)cc2C1 | -10% | 1.17 |
| CC(C)(NC(=O)CCCn1cncn1)c1c(Cl)cccc1Cl | 5% | -0.62 |
| O=C(NC[C@H]1CS(=O)(=O)c2ccccc2O1)c1ccc(C(F)F)nc1 | -3% | 0.45 |
| CC(C)n1cc(C(=O)N(C)C[C@H]2CCCN3CCCC[C@@H]23)cn1 | -2% | 0.29 |
| COc1cc2c(cc1OC)CN(c1nc(C)nc3c1cnn3C)CC2 | 2% | -0.34 |
| CN(Cc1cccc(Br)c1O)C(=O)OC(C)(C)C | -6% | 0.75 |
| O=C(CCc1cccnc1)Nc1ccccc1N1CCc2ccccc2C1 | -8% | 1.24 |
| N[C@H]1CCCN(C2CCN(c3ccccc3Cl)CC2)C1 | -7% | 0.8 |
| C[C@@H](c1ccccc1)n1nnnc1N1Cc2cnn(CCO)c2C1 | -5% | 0.44 |
| CN1CCCC[C@@H]1CCNC(=O)c1ccc(N[C@H]2CC[C@H](O)CC2)nc1 | -4% | 0.86 |
| CC(C)C(=O)NCCN(C)Cc1ccc(C#N)cc1Br | -19% | 2.19 |
| COCCCNC(=O)c1cnn(-c2nccc(-c3ccc(C)o3)n2)c1C | -5% | 0.73 |
| O=C(c1ccccc1F)N(Cc1cccs1)c1ccccn1 | 31% | -3.59 |
| Cc1cc(Br)cn(Cc2nccc(N)n2)c1=O | -6% | 0.78 |
| CC(NC(=O)C1CC(=O)N(c2cc(Cl)cc(Cl)c2)C1)C1CCCO1 (centres undefined) | 2% | -0.23 |
| CN(c1ccc(N2CCOCC2)nc1)S(=O)(=O)Cc1ccon1 | -11% | 1.75 |
| COC(=O)c1nc(NC(=O)c2ccccc2-n2nnnc2C)sc1C | -16% | 1.93 |

| Compound | % Inhibition | Z score |
| --- | --- | --- |
| O=C(O)c1ccc(CN2CCOC[C@@H]2CC2CCOCC2)s1 | -8% | 1.64 |
| Cc1n[nH]c(C)c1CN(C)Cc1noc(C2CC2)n1 | -10% | 1.88 |
| C[C@@H](c1ccncn1)N(C)Cc1ccc(C(=O)Nc2cnns2)cc1 | -8% | 1.05 |
| Cc1cc(-c2csc(NC(=O)c3c(C4CC4)cnn3C)n2)c(F)cc1F | 4% | -0.5 |
| CN1CCN(c2cc(NC(=O)c3cccc(Br)c3)ncn2)CC1 | -9% | 1.8 |
| Cc1cc(Nc2ccc(F)cc2)nc2nn(CC(C)C)c(=O)n12 | -1% | 0.23 |
| CCN(CC)S(=O)(=O)c1cc2c(cc1N1CCN(C)CC1)Oc1ccccc1NC2=O | -3% | 0.56 |
| O=C(Nc1cc(Oc2ccccc2)cc(Oc2ccccc2)c1)c1ccc(Br)cc1 | 9% | -1.38 |
| COCC(C)(C)CNC(=O)CCc1ccnn1C | -19% | 1.72 |
| COc1cc(CN(C)C(=O)Nc2cccc(OC)n2)sn1 | -11% | 0.95 |
| CCCC(=O)N[C@](C(=O)OCC)(N1CCCCC1)C(F)(F)F | -7% | 0.84 |
| Cc1ccc(CN2CCN(CCC(C)(C)C)[C@@H]3CS(=O)(=O)C[C@@H]32)o1 | -10% | 1.35 |
| O=C(CC1CCN(C(=O)c2nnc(C(=O)Nc3ccccc3)s2)CC1)NCc1cccnc1 | -16% | 1.41 |
| N#Cc1cc(Cn2nnnc2-c2ccncc2)ccc1F | -10% | 1.54 |
| Cc1cccc(NC(=O)N2CCCCC[C@@H]2CN2CCCC2)c1 | -10% | 1.53 |
| Cc1ccc(-c2cnn([C@@H](C)C(=O)Nc3ccc(F)cc3C)c(=O)n2)cc1 | -11% | 1.81 |
| COC(=O)[C@H](CN)Oc1ccc(F)cc1 | 2% | -0.27 |
| Fc1ccc(CNc2cccc3nonc23)cc1Cl | -12% | 1.34 |
| CC1(C)c2[nH]c3ccccc3c2C[C@H]2C(=O)N(C3CCCC3)CC(=O)N21 | 4% | -0.54 |
| CCC(CC)NC(=O)Cc1cccs1 | -9% | 1.72 |
| CS(=O)(=O)N1CCC[C@H](Cn2nnc(-c3ccccc3)n2)C1 | -1% | 0.12 |
| CS(=O)(=O)c1ccc(S(N)(=O)=O)cc1 | -14% | 1.3 |

| Compound | % Inhibition | Z score |
| --- | --- | --- |
| CC[C@@H](c1nnc(COc2cc(C)cc(C)c2)o1)N1CCCC1=O | -8% | 1.48 |
| Cc1cc(C)c(CNC(=O)c2cccnc2)c(=O)[nH]1 | -12% | 1.88 |
| N#CCCN(CC(F)(F)F)C(=O)[C@@H]1CCOc2ccc(Cl)cc21 | -19% | 2.56 |
| Cc1nc(N[C@H]2CC2(C)C)cc2nncn12 | 17% | -2.19 |
| CC1(C)NC(=O)N(CNc2ccc(F)cc2)C1=O | -43% | 5.06 |
| CCc1cccc(NC(=O)Cn2c(=O)n(Cc3cccc(Cl)c3)c(=O)c3ccccc32)c1 | 29% | -3.96 |
| COc1ncc(C(=O)N(CCO)Cc2ccc(C)s2)cn1 | -6% | 0.74 |
| Cc1nc(N(C)C)nc(C)c1NC(=O)Nc1ccc2c(c1)OCO2 | -8% | 1.29 |
| CN1CC[C@@H](c2nc(Cc3ccc(F)cn3)no2)S1(=O)=O | -4% | 0.5 |
| N#Cc1ccc(OC(F)(F)F)c(Cl)c1 | -13% | 1.66 |
| Cc1ccc(C)c(S(=O)(=O)N2CCC(F)(c3nc(CC(C)C)no3)CC2)c1 | -5% | 0.89 |
| COCC[C@]1(c2noc(C)n2)CCCN(S(=O)(=O)c2ccc(Cl)s2)C1 | -1% | 0.2 |
| COCCn1cc(CN(C)CC(=O)N2CCCCCC2)ccc1=O | -1% | 0.25 |
| COc1cccc(C=Cc2nc3cnccc3c(=O)[nH]2)c1 | -6% | 0.74 |
| CCCOc1cccc(CN2C(=O)NC3(CCC3)C2=O)c1 | -10% | 1.93 |
| CN(C)CCN(C[C@H]1CCCO1)C(=O)c1coc2ccccc12 | 11% | -1.17 |
| NS(=O)(=O)N1CCC[C@H]1C(=O)NC1CCCCCCC1 | 2% | -0.45 |
| O=C(c1csnn1)N1CCC[C@H](c2nc3ccc(F)cc3o2)C1 | -15% | 2.05 |
| CN(CCCNC(=O)c1cccn(C)c1=O)c1ccccc1 | 1% | -0.15 |
| Cn1nc(C(=O)Nc2ccnn2Cc2ccc(Cl)cc2)c2ccccc2c1=O | -5% | 0.79 |
| COc1c(N)ccnc1-c1ccc(C(=O)N[C@@H](C)CCn2cccn2)cc1 | 3% | -0.32 |
| CCc1nc2cccnc2n1[C@H]1CCN(C(=O)NCCCOC)C1 | -4% | 0.48 |

| Compound | % Inhibition | Z score |
| --- | --- | --- |
| Cc1ccc(-c2cc(C(=O)NCC3CC3)n[nH]2)s1 | -14% | 1.37 |
| Cc1ccc(Oc2ccc(C(=O)Nc3ccc4c(c3)OCO4)cc2)nn1 | -1% | 0.2 |
| c1nc(N2CC[C@]3(CCOC3)C2)c2cn[nH]c2n1 | -3% | 0.35 |
| CC(=O)c1ccc(NCCC(=O)N2CCCCCC2)nc1 | -11% | 1.87 |
| CN1CCC[C@H]1c1nc(-c2nccc3ccccc23)no1 | 4% | -0.53 |
| CC[C@H](NC1CCN(c2nnc(-c3ccccc3)s2)CC1)c1cccnc1 | 17% | -2.22 |
| Cc1nc2cc(-c3noc(-c4ccc(C(F)(F)F)cc4)n3)ccc2n(C)c1=O | -3% | 0.3 |
| CCC(C)N(Cc1cccs1)CC(O)COCC(C)C (centres undefined) | 10% | -1.28 |
| O=C(NCC(=O)N1CCC(C(=O)N2CCCCCC2)CC1)c1sc2ccccc2c1Cl | -10% | 1.2 |
| O=S(=O)(c1ccc(-c2csc(N3N=C(c4ccccc4)C[C@H]3c3ccccc3)n2)cc1)N1CCCCC1 | -2% | 0.36 |
| Cc1[nH]nc(CCc2ccccc2)c1NC(=O)c1cc(F)cc(F)c1 | 12% | -1.56 |
| COc1ccccc1[C@@H]1C=C(c2ccc(F)cc2)Nc2nnnn21 | -5% | 0.68 |
| COCc1nc(CN(C)C)n(-c2ccc(Cl)c(Cl)c2)n1 | -10% | 0.92 |
| CC(=O)c1cc(C)ccc1OS(=O)(=O)c1ccc(N2CCCC2=O)cc1 | -14% | 1.75 |
| CC(C)c1csc(-c2cc(N)ccn2)n1 | -5% | 0.97 |
| NS(=O)(=O)c1ccc(CCNC(=O)Cc2csc(Nc3ccc(Cl)cn3)n2)cc1 | -14% | 2.11 |
| CC(C)C[C@H](C)S(=O)(=O)N1CCCCC1 | -5% | 0.6 |
| CCn1cc(C(=O)OCc2ccc(OC)nc2)cn1 | -7% | 0.95 |
| CCN1CCn2cc(C(=O)NCc3ccc(F)cc3)nc2C1 | -2% | 0.33 |
| Cc1nn(C)cc1CNc1ncccc1-c1ccccc1 | -16% | 1.82 |
| Cc1csc(CNC(=O)c2cc(=O)nc3sccn23)n1 | 5% | -0.68 |
